In PubChem BioAssay AID504332 (National Center for Advancing Translational Sciences (NCATS), 2011):
Hit rate of the full screen: of about 350,000 compounds, about 31,000 (8.9%) were called active. Inconclusive means that the source gave no clear call. Such entries were picked first, then a sample of the others. Calls come from the whole dose curve; as a rule, active = well fitted inhibition curve with a large enough effect; inconclusive = small, poorly fitted or top-dose-only effect; inactive = no such curve, though single readings can be large or run the other way. A potency beside an inconclusive call is a rough fit, not a confirmed value.

target: Histone-lysine N-methyltransferase EHMT2 (Homo sapiens) (UniProt Q96KQ7); assay: qHTS Assay for Inhibitors of Histone Lysine Methyltransferase G9a; settings: G9a H3K9 monomethylation, AlphaScreen, 2 h; activity, negative = inhibition: at 59 µM (top of the series) unless noted; note: nearly all actives have a fitted effect of over 75% in size
How it was run: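 AlphaScreen detection with an anti-monomethyl H3K9 antibody quantified product after a 2 h room-temperature reaction containing 500 nM biotinylated H3K9 peptide, 20 µM SAM and 20 nM enzyme, which had been preincubated 15 min with compound.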
% is set by controls: 0 for no effect and ±100 for the full control effect; potency is the fitted concentration of half-maximal effect; tags give direction and shape of the fitted curve.

Chain of UniProt Q96KQ7 (Q96KQ7 whole entry, looked up): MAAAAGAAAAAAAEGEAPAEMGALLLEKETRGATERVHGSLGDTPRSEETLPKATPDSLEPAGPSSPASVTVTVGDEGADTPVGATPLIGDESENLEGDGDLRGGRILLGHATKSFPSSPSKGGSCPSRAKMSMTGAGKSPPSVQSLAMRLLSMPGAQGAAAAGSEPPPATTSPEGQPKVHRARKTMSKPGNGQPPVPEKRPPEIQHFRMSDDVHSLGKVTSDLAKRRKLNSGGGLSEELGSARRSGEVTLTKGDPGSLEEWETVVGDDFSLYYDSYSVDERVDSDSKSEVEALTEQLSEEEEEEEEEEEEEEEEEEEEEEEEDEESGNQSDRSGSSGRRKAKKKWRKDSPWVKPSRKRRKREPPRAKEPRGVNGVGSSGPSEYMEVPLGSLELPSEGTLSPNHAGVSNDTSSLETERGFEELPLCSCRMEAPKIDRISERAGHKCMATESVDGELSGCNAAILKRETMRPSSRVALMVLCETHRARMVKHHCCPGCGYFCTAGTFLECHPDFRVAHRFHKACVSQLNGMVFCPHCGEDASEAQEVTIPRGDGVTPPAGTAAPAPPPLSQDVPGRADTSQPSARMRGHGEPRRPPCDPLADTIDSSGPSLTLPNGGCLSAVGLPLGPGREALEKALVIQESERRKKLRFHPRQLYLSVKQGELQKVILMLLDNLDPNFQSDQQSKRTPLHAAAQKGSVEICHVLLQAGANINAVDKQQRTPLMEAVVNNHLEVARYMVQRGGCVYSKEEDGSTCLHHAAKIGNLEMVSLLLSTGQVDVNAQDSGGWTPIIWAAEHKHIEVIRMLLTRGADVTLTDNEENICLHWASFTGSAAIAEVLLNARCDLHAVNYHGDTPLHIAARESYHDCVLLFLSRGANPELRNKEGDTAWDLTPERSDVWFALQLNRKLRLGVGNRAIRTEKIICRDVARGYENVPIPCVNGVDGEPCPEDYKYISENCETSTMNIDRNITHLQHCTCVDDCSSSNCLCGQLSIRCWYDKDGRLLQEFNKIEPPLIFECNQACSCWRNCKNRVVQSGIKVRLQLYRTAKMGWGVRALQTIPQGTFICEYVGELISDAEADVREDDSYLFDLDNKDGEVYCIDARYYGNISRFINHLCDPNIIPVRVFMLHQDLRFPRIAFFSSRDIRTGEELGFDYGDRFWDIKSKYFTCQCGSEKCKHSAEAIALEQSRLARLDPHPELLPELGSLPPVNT

SMILES	Potency	activity, negative = inhibition
O=C(OCC(=O)N1CCc2ccccc21)c1cc(S(=O)(=O)N2CCOCC2)ccc1F	inconclusive: 79.4 µM [inhibitor, partial curve, poor fit]	
CC(C)c1ccc(OCC(=O)NCC(c2ccc(Cl)cc2)N2CCOCC2)cc1 (stereo not drawn)	inactive	
COc1ccc(CCNC(=O)CN2C(=O)C(=O)N(C3CCCC3)C2=O)cc1OC	inconclusive: 1.26 µM [inhibitor, single point]	
CCOC(=O)C1=C(CN2CCN(C)CC2)NC(=O)NC1c1ccc(F)cc1 (stereo not drawn)	inactive	
COc1cccc(C(=O)NC2CC3CCCC(C2)N3CC(=O)Nc2ccc(N(C)C)cc2)c1 (stereo not drawn)		inactive: 29% [at 0.501 µM]
C/C(CCC(C)C)=N\Nc1ccc(S(N)(=O)=O)cc1[N+](=O)[O-]	inconclusive: 20 µM [inhibitor, full curve, poor fit]	
O=[N+]([O-])c1ccc(N2CCN(c3ccccc3F)CC2)c(S(=O)(=O)N2CCOCC2)c1	active: 20 µM	
CCOC(=O)N1CCN(c2ncnc3c2oc2nc(C(C)C)c4c(c23)CCC4)CC1	inconclusive: 89.1 µM [inhibitor, partial curve, poor fit]	
O=c1c2ccccc2c(/C=N/n2cnnc2)c(O)n1-c1ccccc1F	active: 70.8 µM	
Cn1c(CNc2nc3ccccc3n2CCN2CCCCC2)nc2ccccc21	inconclusive: 50.1 µM [inhibitor, partial curve]	
CCCSc1nc2sc3c(c2c(=O)n1-c1ccc(C)c(Cl)c1)CCN(C(C)=O)C3	inconclusive: 10 µM [inhibitor, partial curve, poor fit]	
O=S(=O)(c1cccc2cccnc12)N1CCCc2ccccc21	inactive	
O=[N+]([O-])c1ccc(O)c(/C=N/NC2=NS(=O)(=O)c3ccccc32)c1	inconclusive: 56.2 µM [inhibitor, single point]	
CCN(c1ccccc1)S(=O)(=O)c1ccc2c(c1)N(C(C)=O)CCS2	inactive	
CCn1c(Sc2ccc(N)cc2Cl)nc2ccccc21		inconclusive: -58% [inhibitor]
CCSc1nnc(Cc2cc(=O)[nH]c(=O)[nH]2)n1-c1cccc(C)c1	inconclusive: 1.41 µM [inhibitor, single point]	
CCOC(=O)c1c(N)sc(C(=O)OCCOC)c1C	active: 11.2 µM	
O=C(Nc1ccccc1F)c1oc2ccccc2c1NC(=O)c1c(F)cccc1F	inactive	
C=C1c2ccc(C)cc2NC(=O)N1c1ccccc1	inconclusive: 3.16 µM [inhibitor, partial curve]	
Cc1ccc(S(=O)(=O)c2nc(-c3ccc(F)cc3)oc2SCC(=O)NCC2CCCO2)cc1 (stereo not drawn)	inconclusive: 39.8 µM [inhibitor, single point]	
Cc1ccc(C(=O)N/C(=C/c2ccco2)C(=O)NCc2ccco2)cc1	active: 44.7 µM	
COc1ccc(S(=O)(=O)N=Nc2c(O)[nH]c3ccccc23)cc1	active: 3.16 µM	
Cc1c(NC(=O)c2ccc(COc3ccc4ccccc4c3)o2)c(=O)n(-c2ccccc2)n1C	inconclusive: 79.4 µM [inhibitor, single point]	
O=[N+]([O-])c1ccc(C2Oc3ccccc3C3CC(c4ccccc4)=NN32)s1 (stereo not drawn)	active: 10 µM	
COC(=O)c1cc(NC(=O)Cc2ccccc2[N+](=O)[O-])cc(C(=O)OC)c1		inconclusive: -87.3% [inhibitor]

SMILES	Potency	activity, negative = inhibition
COc1cc(NC(=O)CN2C(=O)NC(c3ccccc3)(c3ccccc3)C2=O)cc(OC)c1	inconclusive: 89.1 µM [inhibitor, partial curve, poor fit]	
CCN(CC)CCCNC(=O)CNC(=S)N(CCCN1CCOCC1)Cc1cccs1	inactive	
CCCC(C)c1nnc(NC(=O)C(=O)OCC)s1 (stereo not drawn)	inconclusive: 3.16 µM [inhibitor, full curve, poor fit]	
CC(=O)Nc1ccc(C(=O)Nc2cccc(S(=O)(=O)NC3=NCCC3)c2)cc1	inconclusive: 44.7 µM [inhibitor, partial curve, poor fit]	
O=C(N/N=C/c1cn(-c2ccccc2)nc1-c1cccs1)c1ccccc1F	inactive	
Cn1nnnc1SCCNCc1cccnc1	inconclusive: 31.6 µM [inhibitor, single point]	
CC(C)C(C(=O)Nc1sc2c(c1C#N)CCCCC2)N1C(=O)c2ccccc2C1=O (stereo not drawn)	inconclusive: 50.1 µM [inhibitor, partial curve, poor fit]	
Cc1ccc2nc(C)c3c(c2c1)OC(C(C)(Cl)Br)C3 (stereo not drawn)		inactive: -8.36% [at 12.7 µM]
CCOc1ccc(-c2nnc(SCC(=O)Nc3cc(C)ccc3OC)o2)cc1	inconclusive: 25.1 µM [inhibitor, single point]	
CCCN(Cc1ccc(C)cc1)C(=O)c1ccc(CNS(=O)(=O)c2ccc(C(C)=O)cc2)cc1		inactive: 8.51% [at 12.7 µM]
N#Cc1cccc(NC(=O)C2CCN(c3nc(-c4ccc(Cl)cc4)no3)CC2)c1	inactive	
COc1cc(OC)nc(NC(=O)C(C)C)n1	inconclusive: 56.2 µM [inhibitor, partial curve, poor fit]	
NC(=O)COC(=O)CCCc1c[nH]c2ccccc12	inconclusive: 7.08 µM [inhibitor, single point]	
Cc1ccc(CCNC(=O)CSCc2nc(-c3ccc(C)cc3)oc2C)cc1	inactive	
COc1ccc(C2C(C(=O)N3CC(C)CC(C)C3)c3ccccc3C(=O)N2C)cc1 (stereo not drawn)	inconclusive: 8.91 µM [inhibitor, partial curve, poor fit]	
CNC(=S)NCC(O)c1ccc([N+](=O)[O-])cc1 (stereo not drawn)	inactive	
O=C(N/C(=C/c1ccco1)C(=O)N1CCCC1)c1cccs1		inactive: -5.28% [at 2.33 µM]
CCN(CC)S(=O)(=O)c1ccc2oc(Nc3ccccc3)nc2c1	active: 31.6 µM	
CC(=O)N1CCN(c2ccc(NC(=S)NC(=O)COc3ccc(C(C)(C)C)cc3)cc2)CC1	inconclusive: 10 µM [inhibitor, single point]	
CCN(Cc1nc(-c2ccc(OC)c(OC)c2)no1)C(=O)c1ccc2c(c1)OCO2	inconclusive: 7.08 µM [inhibitor, partial curve, poor fit]	
Cc1ccc(NC(=O)Cn2c(=O)n(Cc3nc(C)no3)c(=O)c3cc4c(cc32)OCO4)cc1	inconclusive: 7.08 µM [inhibitor, single point]	
COCCSc1nnc(NS(=O)(=O)Cc2ccccc2)s1	inconclusive: 1.58 µM [inhibitor, partial curve]	
Nc1c(C(=O)NCCN2CCOCC2)c2nc3ccccc3nc2n1-c1ccccc1	inconclusive: 50.1 µM [inhibitor, partial curve, poor fit]	
COc1ccc(Cc2nnn(CC(=O)O)n2)cc1	inconclusive: 50.1 µM [inhibitor, partial curve]	
N/C(=N\OC(=O)c1ccc([N+](=O)[O-])cc1Cl)c1ccccn1	active: 20 µM	

SMILES	Potency	activity, negative = inhibition
CSc1nc(SCC(=O)O)c2sc3nc(-c4ccccc4)c4c(c3c2n1)CCC4	active: 17.8 µM	
O=C(Oc1ccc2c(c1)OCC2=O)c1ccccc1		inactive: -23.1% [at 12.7 µM]
O=c1cc(CSc2ccccc2)nc(-c2ccncc2)[nH]1	inactive	
Cc1ccc(S(=O)(=O)N2CCC(C(=O)N[C@@H](C)C(=O)NC3CCS(=O)(=O)C3)CC2)cc1 (stereo partly drawn)	inconclusive: 39.8 µM [inhibitor, single point]	
O=C(CN(c1ccccc1)S(=O)(=O)c1ccccc1)NCCSCc1ccco1	inconclusive: 11.2 µM [inhibitor, partial curve, poor fit]	
CCOc1ccc2nc(SCC(=O)NC3CCS(=O)(=O)C3)[nH]c2c1 (stereo not drawn)	inconclusive: 35.5 µM [inhibitor, single point]	
CN1C=CC=C/C1=C1\SC(=S)N(CC(=O)O)C1=O	active: 20 µM	
CC(C)c1ccc(N2C(=O)CSC23C(=O)N(Cc2ccccc2)c2ccccc23)cc1 (stereo not drawn)	inconclusive: 7.08 µM [inhibitor, single point]	
O=C(NCc1ccccc1)C1CC(=O)N(C2CCCCCC2)C1 (stereo not drawn)	inactive	
NNC(=O)c1cc(O)c(O)c(O)c1	active: 8.91 µM	
CS(=O)(=O)NCCSCc1ccco1	inconclusive: 79.4 µM [inhibitor, partial curve]	
CCn1c(O)c(C(C#N)=C2N=c3ccccc3=N2)c2ccccc21	inactive	
O=C(Cn1cc(SCc2c(F)cccc2Cl)c2ccccc21)N1CCCC1	inactive	
COc1cccc(CNC(=O)C(C)n2c(=O)cc(-c3ccccc3)c3c(C)nn(C)c32)c1 (stereo not drawn)	inactive	
C=CCOC(=O)c1c(C)nc2cc3c(cc2c1C)OCO3	inconclusive: 25.1 µM [inhibitor, single point]	
Cc1sc2nc(C(C)Sc3n[nH]c(N)n3)[nH]c(=O)c2c1C (stereo not drawn)	active: 25.1 µM	
COc1ccc(NC(=O)N2CCN(S(=O)(=O)c3ccc4c(ccn4C)c3)CC2)c(OC)c1	inactive	
O=c1nc(Nc2cccc(Cl)c2)oc2cc(Cl)oc(=O)c12	active: 50.1 µM	
CCc1ccc(CN2CCCC(CCC(=O)N3CCN(c4ccccn4)CC3)C2)o1 (stereo not drawn)	inactive	
Cc1cc(C)n2nc(SC(C)C(=O)N(C)c3ccccc3)nc2n1 (stereo not drawn)		inactive: -5.58% [at 2.33 µM]
COc1ccc(NC(=O)c2cc(=O)[nH]c(=O)[nH]2)cc1S(=O)(=O)Nc1ccccc1Cl	inactive	
COc1ccc(NC(=O)CN(C)CC(=O)Nc2cccc(C(F)(F)F)c2)cc1	inactive	
Cc1ccc2nc(N(CCCN(C)C)C(=O)c3ccc(S(=O)(=O)N(C)C)cc3)sc2c1	inconclusive: 39.8 µM [inhibitor, single point]	
